From PMC4336329 (PLoS ONE, 2015)
Out of some 310,000 compounds screened, about 14,000 (4.5%) showed an effect of 50% or more. The effect is printed as a negative number. The list shows a part of the results.

molecular target: human ether-à-go-go-related gene (hERG) potassium channel (human, UniProt Q12809); experiment: primary screen, population patch clamp on CHO cells stably expressing hERG
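Note: peak tail current of the secondary pulse compared with the same well before compound.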

human ether-à-go-go-related gene (hERG) potassium channel, sequence (Q12809 whole entry, looked up): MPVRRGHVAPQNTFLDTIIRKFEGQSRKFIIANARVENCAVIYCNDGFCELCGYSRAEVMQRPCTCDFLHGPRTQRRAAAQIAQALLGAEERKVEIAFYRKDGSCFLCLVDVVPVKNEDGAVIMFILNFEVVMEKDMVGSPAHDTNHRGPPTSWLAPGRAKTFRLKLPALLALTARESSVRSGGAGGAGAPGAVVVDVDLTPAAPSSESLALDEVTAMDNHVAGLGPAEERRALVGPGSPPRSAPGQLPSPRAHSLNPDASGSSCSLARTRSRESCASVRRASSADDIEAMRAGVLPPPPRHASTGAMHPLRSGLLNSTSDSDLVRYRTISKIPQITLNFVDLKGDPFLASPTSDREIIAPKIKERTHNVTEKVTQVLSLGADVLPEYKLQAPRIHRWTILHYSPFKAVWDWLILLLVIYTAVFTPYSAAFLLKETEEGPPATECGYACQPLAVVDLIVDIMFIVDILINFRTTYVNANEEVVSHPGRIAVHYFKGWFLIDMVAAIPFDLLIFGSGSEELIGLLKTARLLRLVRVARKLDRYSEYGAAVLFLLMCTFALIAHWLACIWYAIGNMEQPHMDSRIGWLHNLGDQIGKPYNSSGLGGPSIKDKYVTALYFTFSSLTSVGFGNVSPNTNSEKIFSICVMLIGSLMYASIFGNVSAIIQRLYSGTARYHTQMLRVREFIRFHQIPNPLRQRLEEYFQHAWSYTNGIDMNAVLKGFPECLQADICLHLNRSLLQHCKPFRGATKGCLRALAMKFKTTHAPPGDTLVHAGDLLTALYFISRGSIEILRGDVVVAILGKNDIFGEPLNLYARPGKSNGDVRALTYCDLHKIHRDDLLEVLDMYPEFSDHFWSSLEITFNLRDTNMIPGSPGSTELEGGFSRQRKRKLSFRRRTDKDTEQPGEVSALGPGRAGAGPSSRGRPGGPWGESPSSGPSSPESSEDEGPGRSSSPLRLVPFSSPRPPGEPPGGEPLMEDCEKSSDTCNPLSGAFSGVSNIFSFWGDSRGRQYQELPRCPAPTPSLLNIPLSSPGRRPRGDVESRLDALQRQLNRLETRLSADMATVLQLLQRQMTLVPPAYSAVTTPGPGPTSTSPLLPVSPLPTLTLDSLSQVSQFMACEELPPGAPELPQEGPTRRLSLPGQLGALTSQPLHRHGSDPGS

Row | Structure (SMILES) | hERG current change (%, negative = inhibition) at 10uM [%]
1 | Cc1ccc(C)c(N2CCN(S(=O)(=O)c3csc(C(N)=O)c3)CC2)c1 | -8.27
2 | O=C(Nc1ccc(S(=O)(=O)Nc2ncccn2)cc1)c1ccc(N2CCCC2=O)cc1 | 20.1
3 | CCN(CC(=O)NCc1cccs1)CC(=O)Nc1cccc(S(N)(=O)=O)c1 | 14.4
4 | Cc1cc(OCC(=O)N[C@@H](Cc2ccccc2)C(=O)O)c2c3c(c(=O)oc2c1)CCCC3 | 0.915
5 | COc1ccc(OC)c(C2SCCN2S(C)(=O)=O)c1 (stereo not drawn) | -7.13
6 | Cc1ccc(-c2nc3ncccn3c2Nc2ccc3c(c2)OCO3)o1 | -48
7 | C=C1CC2C(=O)N(Cc3cc(OC)ccc3OC)C(C(=O)OCC)(C(=O)OCC)C1N2C(=O)OC(C)(C)C (stereo not drawn) | -4.79
8 | O=C(c1ccc(Cn2cc([N+](=O)[O-])cn2)o1)N1CCCCCC1 | -4.88
9 | COc1ccc(N2CCN(C(=O)CSc3nnc(COc4cccc5cccnc45)o3)CC2)cc1 | -12
10 | c1ccc(-c2csc(NC3CCCCC3)n2)cc1 | 17.1
11 | CCCCCCNCc1ccc(Br)cc1.Cl | -61.7
12 | CCN(CC)C(c1ccc(F)cc1)c1nnnn1C1CCCCC1.Cl (stereo not drawn) | -8.8
13 | COc1ccc(S(=O)(=O)c2c(O)c3ccc(C(=O)Nc4ccccc4)cc3[nH]c2=O)cc1 | 11.7
14 | CC1CCCN(C(=O)C2CC(=O)N(c3ccc(Cl)cc3)C2)C1 (stereo not drawn) | -2.95
15 | CC(=O)Nc1nn(C)c2nc3ccc(C)cc3cc12 | 13
16 | COc1ccccc1C(=O)NNC(=O)C1CCCO1 (stereo not drawn) | 11.5
17 | COc1ccc(/C=C/C(=O)NCC(=O)N2CCC(N(C)CCN3CCOCC3)CC2)cc1OC | 14.7
18 | Cc1cccc(-n2c(Cc3ccccc3)nnc2SCc2ccc([N+](=O)[O-])cc2)c1 | -37.6
19 | CC(C)=C1C2CCC1C(C(=O)NCCc1ccccc1)C2C(=O)O (stereo not drawn) | 23.4
20 | COc1cccc(-c2csc(N3CCN(C(=S)NCC(C)C)CC3)n2)c1 | -0.713
21 | N#CCCn1cc(C=C(C#N)C#N)c(-c2ccc(Cl)cc2)n1 | -4.66
22 | CC(=O)c1ccc(NS(=O)(=O)c2ccc(C)cc2)cc1 | 8.09
23 | Cn1c(N)c(C(=O)COC(=O)COc2ccc(Br)cc2)c(=O)n(C)c1=O | -72.6
24 | COC(=O)c1ccc(COc2ccc(C)c(C)c2)o1 | 12.3
